Reference: PubChem BioAssay AID1345082 (National Center for Advancing Translational Sciences (NCATS), 2018)
In all, about 94,000 compounds went through this assay and about 4,000 (4.3%) were called active. Inconclusive results, whose numbers are uncertain, are shown with a selection of clear calls. Calls follow the shape of the dose curve; as a rule, active = well fitted inhibition curve with a large enough effect; inconclusive = small, poorly fitted or top-dose-only effect; inactive = no such curve, though single readings can be large or run the other way. Potencies beside an inconclusive call are fits to weak or partial responses and may not hold up.
% is scaled to controls: 0 for no effect and ±100 for the full control effect; potency is read from the fitted curve at half-maximal effect; tags tell the direction and shape of the fitted curve.

Assay: Cytotoxic Profiling in NIH 3T3 Cell Line of Diverse Libraries Using Quantitative High-Throughput Screening; also: nearly all actives have a fitted effect of over 55% in size
Conditions: NIH 3T3 viability, CellTiter-Glo ATP luminescence, 48-72 h; activity change, negative = cytotoxicity: at 96.7 µM (top of the series); series mostly up to 96.7 µM
From the text: Cell-based phenotypic screening is a commonly used approach to discover biological pathways, novel drug targets, chemical probes and high-quality hit-to-lead molecules. Many hits identified from high-throughput screening campaign are ruled out through a series of follow-up potency, selectivity/specificity, and cytotoxicity assays. Prioritization of molecules with little or no cytotoxicity for a more in-depth downstream evaluation influence the future direction of projects, so cytotoxicity profiling of the screening libraries at early stage is essential for increasing the likelihood of candidate success. In this study, we analyzed results from a cell-based cytotoxicity screening campaign, comprising nearly 10,000 compounds in NCATS annotated libraries, and over 100,000 compounds in a diversity library, evaluated in four normal cell lines (HEK 293, NIH 3T3, CRL-7250 and HaCat) and a cancer cell line (KB 3-1, a HeLa subline) with overall screening outcomes, hit rates, pan-activity and selectivity. For the annotated library, we also examined the primary targets and mechanistic pathways regularly associated with cell death. To our knowledge, this is the first study to use high-throughput screening to profile large libraries for cytotoxicity assessment in both normal and cancer cell lines. In summary, the results generated here constitutes a valuable resource for the scientific community and provides insight on identifying cytotoxic compounds with particular mechanisms of action, and prioritizing compounds with suitable cytotoxicity profile for further evaluation.
NIH 3T3 cells were seeded into white 1536-well plates using a Multidrop Combi peristaltic dispenser (ThermoFisher, Waltham, MA) at a density of 400 cells/well in 5 uL of medium respectively. A pintool (Kalypsys) was used to transfer 23 nL of compound solution to the 1536-well assay plates. After 48 or 72 hr incubation at 37 degree Celsius, 5% CO2 and 95% humidity, 2.5 uL of CellTiter-Glo (Promega) was dispensed into each well using a dispenser (Aspect Automation, St. Paul, MN) with solenoid valves (Lee Valves, Westbrook CT). Plates were left at room temperature for 10 min before imaging the ATP-coupled luminescence using a ViewLux microplate imager (PerkinElmer, Waltham, MA).
For `COc1cccc(N2CC3(COCC2=O)CN(c2ccc(C(F)(F)F)cn2)C3)c1`, the Potency was inconclusive: 35.5 µM [inhibitor, partial curve, poor fit].
With `O=C(NCc1cccc(Br)c1)c1noc(-c2ccc(F)cc2)n1` the Potency was active: 31.6 µM.
With `CCOCCCNC(=O)c1cc(-c2cccc(F)c2)nc2c1cnn2C` the Potency was inconclusive: 44.7 µM [inhibitor, partial curve, poor fit].
In the case of `COc1ccc(-c2cc(N3CCC(NC(=O)c4cc(Cl)ccc4F)C3)n[nH]2)cc1` (stereo not given), the Potency is reported as inconclusive: 50.1 µM [inhibitor, partial curve, poor fit].
For `CN1CCCN(S(=O)(=O)c2ccc(Cl)cc2)c2ccccc21`, the Potency was inconclusive: 5.01 µM [inhibitor, full curve, poor fit].
With `Cn1ncc2c(C(=O)N3CCC(C#N)CC3)cc(-c3cccnc3)nc21` the Potency was inconclusive: 50.1 µM [inhibitor, partial curve, poor fit].
In the case of `COc1ccccc1-c1cc(C(=O)NCCc2ccc(Cl)cc2)nn2cnnc12`, the Potency is reported as inconclusive: 50.1 µM [inhibitor, partial curve, poor fit].
In the case of `O=C1[C@@H]2C[C@@H](CN2Cc2ccc(C(F)(F)F)cc2)Oc2ccccc2N1Cc1cccnc1`, the Potency is reported as inconclusive: 50.1 µM [inhibitor, partial curve, poor fit].
For `CN1[C@@H](CCC(=O)NCc2cccs2)CNC(=O)[C@@H]2[C@H]1CCN2Cc1cccc(Cl)c1`, the “activity change, negative = cytotoxicity” value was inactive: -22.7%.
In the case of `O=C(NCCN1CCCCC1)c1ccc(-c2ccc(N3CCSCC3)nc2)cc1`, the Potency is reported as active: 28.2 µM.
With `CCc1ccc(Nc2nc(-c3ccccc3F)no2)cc1` the Potency was inconclusive: 31.6 µM [inhibitor, partial curve, poor fit].
In the case of `O=C(c1ccc(Cl)nc1)N1CCCC(C(=O)N2CCC(c3nc4ccncc4[nH]3)C2)C1` (stereo not given), the “activity change, negative = cytotoxicity” value is reported as inactive: -23.8%.
With `COCCNC(=O)c1ccc(-c2ccc(N3CCCCCC3)nc2)cc1` the Potency was inconclusive: 44.7 µM [inhibitor, partial curve, poor fit].
For `Cc1ccc(C)c(-n2nc(-c3c(C)nc4scc(CC(=O)NC(C)C(C)C)n4c3=O)cc2C)c1` (stereo not given), the “activity change, negative = cytotoxicity” value was inactive: -25.8%.
In the case of `COCCNc1ccc2nnc(-c3ccc(OC)cn3)n2n1`, the Potency is reported as inconclusive: 89.1 µM [inhibitor, partial curve].
With `COc1ccc(C(=O)NCC(=O)N2CCCCCCNC(=O)CC2c2ccccc2)c(OC)n1` (stereo not given) the “activity change, negative = cytotoxicity” value was inactive: -18.5%.
For `CCOC(=O)[C@@H]1CN(C(=O)Cc2ccc(F)cc2)[C@H]2c3ccccc3O[C@@H]12`, the Potency was inconclusive: 50.1 µM [inhibitor, partial curve, poor fit].
With `COc1ccccc1-c1nnc2ccc(C(=O)NCc3ccc(F)c(F)c3)cn12` the Potency was inconclusive: 79.4 µM [inhibitor, single point].
For `CC(C)C1CN(C(=O)c2cncc(F)c2)CCC(=O)N1Cc1ccc(F)cc1` (stereo not given), the “activity change, negative = cytotoxicity” value was inactive: -11.6%.
In the case of `Cn1nc(C(=O)N2CCCN(c3cc(-c4ccccc4)[nH]n3)CC2)c2ccccc21`, the Potency is reported as inconclusive: 44.7 µM [inhibitor, partial curve, poor fit].
In the case of `CC(C)CN(C)C(=O)c1cc(-c2cnn(C(C)C)c2)nc2ccc(F)cc12`, the “activity change, negative = cytotoxicity” value is reported as inactive: -27.2%.
With `CCO[C@H]1CN(C(=O)c2cccc(-c3cccc(F)c3)c2)C[C@@H]1O` the Potency was inconclusive: 79.4 µM [inhibitor, partial curve, poor fit].
In the case of `COc1cncc(Nc2cnc3ccc(N(C)Cc4ccc(F)cc4)nn23)c1`, the Potency is reported as inconclusive: 31.6 µM [inhibitor, partial curve, poor fit].
In the case of `Cc1noc(C)c1[S+](=O)([O-])N1CCC2(CCN(Cc3cccs3)c3ccccc3O2)CC1`, the Potency is reported as inconclusive: 50.1 µM [inhibitor, partial curve, poor fit].
With `Cc1onc(C(=O)N2CCC(CCOc3ccc(F)cc3)C2)c1Cn1cc(Cl)cn1` (stereo not given) the Potency was active: 44.7 µM.
For `COc1cccc(-c2cccc(C(=O)N3CCCC3C(=O)N3CCN(C)CC3)c2)c1` (stereo not given), the “activity change, negative = cytotoxicity” value was inactive: -17.2%.
With `CC1=C[C@@H](CNC(=O)NC2CCCCC2)[C@H](C(C)C)C[C@H]1Cc1nc2c(C)cccc2[nH]1` the “activity change, negative = cytotoxicity” value was inactive: -14.2%.
With `CCC(CC)C(=O)N1CCc2nc(OCCOC)ccc2C1` the “activity change, negative = cytotoxicity” value was inactive: -26.8%.
For `CNC(=O)c1cc(C)nc2onc(C3CCCN3C(=O)C3CC3)c12` (stereo not given), the “activity change, negative = cytotoxicity” value was inactive: -27.5%.
In the case of `CN1C[C@H](C(=O)Nc2cccc(F)c2)C[C@H]1c1cccc(C(F)(F)F)c1`, the Potency is reported as active: 50.1 µM.
In the case of `c1ccc(-n2cnnc2CC2CCNCC2)cc1`, the “activity change, negative = cytotoxicity” value is reported as inactive: 0.366%.
For `CC1=C[C@@H](CNCc2cccnc2)[C@H](C(C)C)C[C@H]1Cc1nnc(-c2ccc([N+](=O)[O-])cc2)o1`, the Potency was active: 31.6 µM.
With `Cc1nn(-c2ccc(F)cc2)c(Oc2ccc(F)cc2F)c1CCC(=O)N1CCSCC1` the Potency was inconclusive: 50.1 µM [inhibitor, partial curve, poor fit].
With `COc1ccc(NC(=O)c2cc3c(N(C)Cc4ccccc4)nc(C)cn3n2)cc1F` the Potency was inconclusive: 12.6 µM [inhibitor, full curve, poor fit].
In the case of `COc1ccc2[nH]c3c(c2c1)CCNC31CCN(C(=O)c2ocnc2C)CC1`, the Potency is reported as inconclusive: 50.1 µM [inhibitor, partial curve, poor fit].
For `CC(=O)Nc1ccc(CC(=O)NCCc2noc(-c3ccccc3)n2)cc1`, the “activity change, negative = cytotoxicity” value was inactive: -17%.
In the case of `C[C@]1(CO)[C@H]2Cc3sc(NC(=O)c4cccc(F)c4)nc3[C@@H](CC(=O)N3CCCCC3)[C@]2(C)CC[C@H]1O`, the “activity change, negative = cytotoxicity” value is reported as inactive: -22.3%.
In the case of `COc1ccc2[nH]c3c(c2c1)CCNC31CCN(C(=O)c2ccco2)CC1`, the Potency is reported as inconclusive: 50.1 µM [inhibitor, partial curve, poor fit].
With `COc1ccc(-c2cn3cc(C(=O)NCc4ccccn4)nc3s2)cc1` the Potency was inconclusive: 39.8 µM [inhibitor, partial curve].
With `Cc1cccc(CNC(=O)[C@@H]2COCC(=O)N2Cc2ccc(F)cc2)c1` the Potency was inconclusive: 44.7 µM [inhibitor, partial curve, poor fit].
For `CS(=O)(=O)N1CCC(OCc2noc(C3CCCO3)n2)CC1` (stereo not given), the “activity change, negative = cytotoxicity” value was inactive: -7.92%.
In the case of `Cc1cc(N2CCC3(CCCN(CC4CCC4)C3=O)C2)nc2ccccc12` (stereo not given), the Potency is reported as inconclusive: 44.7 µM [inhibitor, partial curve, poor fit].
With `CNc1nccc(N2CCC(CC(=O)NCCCN3CCC(C)CC3)CC2)n1` the Potency was inconclusive: 70.8 µM [inhibitor, single point].
With `O=C(NCCc1ccccc1)C1CCCCN1Cc1ccc(-c2cccs2)cc1` (stereo not given) the Potency was active: 44.7 µM.
For `O=[S+]([O-])(Cc1ccccc1)N1C[C@@H](CO)[C@@H]2Oc3ccc(Cl)cc3[C@@H]21`, the Potency was inconclusive: 50.1 µM [inhibitor, partial curve, poor fit].
For `O=C(c1ccc(Cl)cc1)N1CC2(CCCN2CC2CC2)Cc2ccccc21` (stereo not given), the Potency was inconclusive: 50.1 µM [inhibitor, single point].
With `CN1CC(=O)N(C2CCCNCC2)Cc2c1ncnc2N1CCC(O)C1` (stereo not given) the “outcome” value was “inactive”.
With `Cc1ccc(SC2CCN(C(=O)c3cn(CCc4ccccc4)nn3)CC2)cc1` the Potency was inconclusive: 89.1 µM [inhibitor, single point].
In the case of `COC1CCN(C(C)=O)CC(=O)N(C)c2ccccc21` (stereo not given), the Potency is reported as inconclusive: 79.4 µM [inhibitor, partial curve, poor fit].
In the case of `O=C1OC[C@@H]2CCN(Cc3cccnc3)Cc3ccc(F)cc3N12`, the “outcome” value is reported as “inactive [at 138 µM]”.
For `O=C(O)COc1ccc(-c2nccc3c2C(=O)N(Cc2ccccc2)CC(CNC(=O)c2ccc(F)cc2)O3)cc1` (stereo not given), the Potency was inconclusive: 70.8 µM [inhibitor, single point].
For `COc1ccc(F)cc1-c1ccc(CN2CCC(NC(=O)c3cccnc3)C2)cc1` (stereo not given), the Potency was inconclusive: 50.1 µM [inhibitor, partial curve, poor fit].
In the case of `c1ccc(-c2ccc3ncc(Nc4ccncc4)n3n2)cc1`, the Potency is reported as inconclusive: 89.1 µM [inhibitor, partial curve, poor fit].
For `O=C1c2c(nc(COc3cccc(Cl)c3)n2Cc2ccccc2)NCCN1CCOc1ccccc1`, the Potency was active: 17.8 µM.
For `Cc1cc(C)cc(C(=O)N2CCCN(c3cc(-c4ccc(Cl)cc4)[nH]n3)CC2)c1`, the Potency was inconclusive: 44.7 µM [inhibitor, partial curve, poor fit].
In the case of `O=C(c1ccc(Cl)cc1)N1CCC(N2CCCOC2=O)CC1`, the “activity change, negative = cytotoxicity” value is reported as inactive: -12.1%.
With `O=C(CC[C@H]1NC(=O)c2ccccc2NC1=O)NCCn1c(=O)c(=O)[nH]c2ccccc21` the “outcome” value was “inactive”.
For `COCCNC(=O)c1ccc(OC)cc1OC1CCN(Cc2cccc3cccnc23)CC1`, the Potency was inconclusive: 44.7 µM [inhibitor, partial curve, poor fit].
In the case of `CC(C)CNC(=O)c1cn2cc(-c3cccnc3)sc2n1`, the Potency is reported as inconclusive: 112 µM [inhibitor, partial curve, poor fit].
In the case of `CC(C)(C)CC(=O)N1CC[C@H]2NC(=O)N(c3ccc(Oc4ccccc4)cc3)C(=O)[C@H]21`, the “activity change, negative = cytotoxicity” value is reported as inactive: 1.08% [at 174 µM].
With `Cc1ccc(C2Cn3nnc(C(=O)N4CCC(C(=O)NCc5ccncc5)CC4)c3CO2)cc1` (stereo not given) the “activity change, negative = cytotoxicity” value was inactive: -28.6%.
In the case of `COc1cc(C)c2c(c1C)C[C@H](C(C)C(=O)N1CCN(c3ccc(F)cc3)CC1)CC2` (stereo not given in full), the Potency is reported as inconclusive: 63.1 µM [inhibitor, full curve].
With `C[S+](=O)([O-])Nc1cccc(Nc2ncc(-c3cccc(F)c3)c3c2OCC3)c1` the Potency was active: 31.6 µM.
For `COCCNC(=O)c1cc(-c2ccc(OC)cc2)nc2c1c(C1CCCN1)nn2C` (stereo not given), the Potency was inconclusive: 50.1 µM [inhibitor, single point].
In the case of `O=C(NCc1ccc(F)c(F)c1)c1ccc2nnc(Cc3ccc(Cl)cc3)n2c1`, the Potency is reported as active: 35.5 µM.
